From publication PMC4336329 (PLoS ONE, 2015) come the findings set out here.

Structures are written as SMILES. Out of some 310,000 compounds screened, about 14,000 (4.5%) showed an effect of 50% or more. The effect is printed as a negative number. This is one part of the list.
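Also: peak tail current of the secondary pulse compared with the same well before compound.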

The target in the assay is human ether-à-go-go-related gene (hERG) potassium channel (human, UniProt Q12809). Nature of the assay: primary screen, population patch clamp on CHO cells stably expressing hERG.
human ether-à-go-go-related gene (hERG) potassium channel, sequence (Q12809 whole entry, looked up): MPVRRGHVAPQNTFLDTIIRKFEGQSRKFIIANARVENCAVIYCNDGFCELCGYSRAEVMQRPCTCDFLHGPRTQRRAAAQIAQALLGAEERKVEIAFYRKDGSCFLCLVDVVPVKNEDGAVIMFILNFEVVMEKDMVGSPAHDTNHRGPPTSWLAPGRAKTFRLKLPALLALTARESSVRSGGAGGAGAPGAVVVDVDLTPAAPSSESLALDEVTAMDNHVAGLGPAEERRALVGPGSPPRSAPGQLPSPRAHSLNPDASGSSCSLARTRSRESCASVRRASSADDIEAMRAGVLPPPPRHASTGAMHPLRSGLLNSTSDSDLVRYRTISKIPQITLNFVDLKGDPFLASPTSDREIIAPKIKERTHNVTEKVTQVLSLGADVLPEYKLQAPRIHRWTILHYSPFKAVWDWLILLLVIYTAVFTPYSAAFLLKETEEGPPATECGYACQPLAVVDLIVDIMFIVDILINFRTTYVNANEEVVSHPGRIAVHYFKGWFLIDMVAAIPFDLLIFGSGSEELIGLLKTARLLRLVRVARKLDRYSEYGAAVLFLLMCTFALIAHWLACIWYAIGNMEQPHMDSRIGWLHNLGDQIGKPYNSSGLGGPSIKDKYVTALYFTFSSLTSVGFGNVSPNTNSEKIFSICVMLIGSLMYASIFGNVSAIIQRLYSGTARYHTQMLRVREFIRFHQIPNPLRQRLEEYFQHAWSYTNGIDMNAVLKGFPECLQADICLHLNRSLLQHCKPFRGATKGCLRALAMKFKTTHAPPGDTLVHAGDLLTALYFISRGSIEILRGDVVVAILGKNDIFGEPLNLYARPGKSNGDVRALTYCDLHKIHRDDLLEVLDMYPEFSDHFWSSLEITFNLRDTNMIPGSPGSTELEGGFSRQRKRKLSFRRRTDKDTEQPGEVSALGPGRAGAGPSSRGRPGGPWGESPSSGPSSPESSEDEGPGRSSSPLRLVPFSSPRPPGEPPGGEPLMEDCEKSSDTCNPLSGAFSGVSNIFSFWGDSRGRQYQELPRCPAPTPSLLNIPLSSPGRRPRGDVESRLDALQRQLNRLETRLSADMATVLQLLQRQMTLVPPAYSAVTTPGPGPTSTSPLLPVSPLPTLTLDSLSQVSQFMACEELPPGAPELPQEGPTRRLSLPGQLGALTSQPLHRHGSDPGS
Regarding `CCOC(Cn1c(CCCO)nc2ccccc21)OCC`, the “hERG current change (%, negative = inhibition) at 10uM” value is on record as -7.25%.
As for `Cc1c(C(=O)N2CCC3(CC2)CC(=O)c2ccccc2O3)cccc1[N+](=O)[O-]`, the “hERG current change (%, negative = inhibition) at 10uM” value is given as -83.2%.
The value for `COCCNC(=O)CN(C(=O)CCC(=O)Nc1ccccn1)c1ccc(C)cc1` was 8.38%.
For the molecule `O=C(O)CSc1nnc(CNc2ccc(F)cc2)n1-c1ccccc1`, the “hERG current change (%, negative = inhibition) at 10uM” value is 10.9%.
With `Cc1cccc(NC2=NC(=S)N(CC#N)C23CCCCC3)c1`, the “hERG current change (%, negative = inhibition) at 10uM” value is reported as -5.44%.
As to `CCOc1ccccc1CNC(=O)C1CCN(C(=O)N2CC(C)Oc3ccc(C)cc32)CC1` (stereo not drawn), the “hERG current change (%, negative = inhibition) at 10uM” value is listed as -14.9%.
The value for `COc1ccccc1C(=O)OCCN1CCOCC1.Cl` was -3.64%; that for `COc1ccc(S(=O)(=O)N2CCOCC2)cc1NC(=O)COC(=O)C1CCC1` was -6.23%; that for `Cc1ccccc1C(=O)Nc1c(C(=O)N2CCN(C)CC2)cnn1-c1ccccc1` was -17.3%.
As for `Br.COc1cc2c(cc1OC)-c1c(OC)c(OC)cc3c1[C@H](C2)[NH+](C)CC3`, the figure is -16.7%; as for `O=C(CCC1CCCC1)N1CCN(C(=O)c2cccnc2)CC1`, -20.8%; as for `CN(/N=C\c1ccc(O)c(O)c1)c1nc(-c2ccccc2)cc(-c2ccccc2)n1`, 13.5%.
As for `CC(=O)Nc1nnc(SCc2ccc(C(=O)Nc3ccccc3F)cc2)s1`, the figure is 17.9%.
Regarding `C=CCn1c(=O)c(C(=O)Nc2ccccc2S(N)(=O)=O)c(O)c2ccccc21`, the “hERG current change (%, negative = inhibition) at 10uM” value was determined as 24.4%.
Regarding `COc1ccccc1C/C(N)=N/OC(=O)c1ccco1`, the “hERG current change (%, negative = inhibition) at 10uM” value turned out to be 0.888%.
With `Cc1c(Cl)c([N+](=O)[O-])nn1CC(=O)N1CCc2ccccc2C1`, the “hERG current change (%, negative = inhibition) at 10uM” value is recorded as 1.08%.
As to `O=C(CCc1nc2ccccc2c(=O)[nH]1)OCc1ccccc1F`, the “hERG current change (%, negative = inhibition) at 10uM” value is -2.75%.
As to `CCC1CCCCN1C(=O)COC(=O)CN(C)S(=O)(=O)c1ccc(NC(C)=O)cc1` (stereo not drawn), the “hERG current change (%, negative = inhibition) at 10uM” value is recorded as 7.22%.
Take `CCn1c(O)c(/C=N/NC(=O)c2ccccc2)c(=O)n(CC)c1=S`: the “hERG current change (%, negative = inhibition) at 10uM” value was determined as 13.6%.
The value for `O=C(Cc1ccccc1)NCCCc1ccccc1` was 9.42%.
As for `CCOC(=O)C1=C(COC(=O)/C=C/c2ccc(C)o2)NC(=O)NC1C` (stereo not drawn), the figure is -18.8%.
Regarding `COc1ccc(S(=O)(=O)N(C)c2ccc(C(=O)N3CCC(C(N)=O)CC3)cc2)cc1`, the “hERG current change (%, negative = inhibition) at 10uM” value was -6.34%.
`CN(C)S(=O)(=O)c1cccc(NC(=O)Cc2ccc(-c3ccccc3)cc2)c1`: the “hERG current change (%, negative = inhibition) at 10uM” value was determined as 6.71%.
With `CCn1c(COc2ccccc2)nnc1SCC(=O)NC1CC1`, the “hERG current change (%, negative = inhibition) at 10uM” value stood at 6.41%.
In the case of `Cc1cccc(NC(=O)CCS(=O)(=O)c2cccc3nsnc23)c1C`, the “hERG current change (%, negative = inhibition) at 10uM” value turned out to be 17.9%.
As to `O=C(NCc1ccco1)c1ccc(CS(=O)(=O)c2cccc(C(F)(F)F)c2)o1`, the “hERG current change (%, negative = inhibition) at 10uM” value is on record as -60.3%.
As for `Cc1cc(C)cc(NC(=O)Cc2ccc(NC3=NC4CS(=O)(=O)CC4S3)cc2)c1` (stereo not drawn), the figure is 9.81%.
For `CCCCn1c(N)c(N(CC(C)C)C(=O)c2c(-c3ccccc3)noc2C)c(=O)[nH]c1=O`, the “hERG current change (%, negative = inhibition) at 10uM” value is listed as -3.01%.
Regarding `CCN1CCN(c2cc(C)c3cc(NC(=S)N4CCC5(CC4)OCCO5)ccc3n2)CC1`, the “hERG current change (%, negative = inhibition) at 10uM” value was -21.3%.
As for `N#Cc1ccc(Oc2ccc(C(N)=O)cc2)cc1C#N`, the figure is -8.43%; as for `O=C(c1cc2ccccc2oc1=O)N(Cc1ccco1)Cc1cccs1`, -58.3%.
With `CC(=O)Nc1cccc(Oc2ncnc3scc(-c4ccc(C(C)C)cc4)c23)c1`, the “hERG current change (%, negative = inhibition) at 10uM” value is reported as 18.4%.
As to `CS(=O)(=O)O.Cc1cc2c(cc1[N+](=O)[O-])NC(CNC(C)C)CC2` (stereo not drawn), the “hERG current change (%, negative = inhibition) at 10uM” value is -25%.
The value for `COC(=O)[C@H](CCSC)NC(=O)Nc1ccc(OC)cc1` was 10.5%; that for `Cc1ccccc1NC(=O)CN1C(=O)c2ccccc2C1=O` was 8.65%; that for `COc1ccc(CN2CCn3ncc(C(=O)Nc4ccccc4)c3C2=O)cc1` was -1.98%.
As for `Cc1cc(C(=O)COc2ccccc2Cl)c(C)n1C1CC1`, the “hERG current change (%, negative = inhibition) at 10uM” value is recorded as -5.85%.
With `C=CCNC(=O)c1ccccc1NC(=O)Nc1ccccc1`, the “hERG current change (%, negative = inhibition) at 10uM” value is reported as 5.28%.
Turning to `Cc1ccc(OCCCC(=O)Nc2ccc(S(=O)(=O)Nc3cc(C)nc(C)n3)cc2)cc1`, the “hERG current change (%, negative = inhibition) at 10uM” value stood at 6.38%.
Regarding `COc1cccc(C(=O)n2cnnc2N)c1OC`, the “hERG current change (%, negative = inhibition) at 10uM” value came to 6.77%.
The value for `Cc1cc(/C=N/NC(=O)c2nn(C)cc2Cl)c(C)n1-c1cccc(Br)c1` was 8.09%; that for `Cc1ccc(S(=O)(=O)CCC(=O)OCC(=O)NCCc2ccc(F)cc2)cc1` was -0.226%; that for `CC(C)C[C@H]1CN=C(Nc2ccccc2)N1CC1CCC(C)CC1` (stereo partly drawn) was -50.3%.
In the case of `O=C(c1cc(-c2ccc(Br)cc2)on1)N1CCCC1`, the “hERG current change (%, negative = inhibition) at 10uM” value is 10.3%.
For the molecule `COc1ccc(CNC(=O)CSc2n[nH]c(C)c2[N+](=O)[O-])cc1`, the “hERG current change (%, negative = inhibition) at 10uM” value is recorded as -10.9%.
On to `COC(=O)c1ccc(C(=O)OC)c(NC(=O)COC(=O)c2ccccc2OC)c1`, for which the “hERG current change (%, negative = inhibition) at 10uM” value came to 5.87%.
As for `O=C(NCc1ccc2c(c1)OCO2)C1Cc2ccccc2CN1C(=O)c1ccco1` (stereo not drawn), the “hERG current change (%, negative = inhibition) at 10uM” value is -59%.
For `CCOC(=O)c1c(NC(=O)CS(=O)(=O)c2cn(CC)c3ccccc23)sc2c1CCCC2`, the “hERG current change (%, negative = inhibition) at 10uM” value came to 6.26%.
Regarding `CN(CC(=O)Nc1ccc(F)cc1)C(=O)c1cn(-c2ccccc2)nc1-c1cccs1`, the “hERG current change (%, negative = inhibition) at 10uM” value is on record as -17.8%.
With `CC1CCc2c(sc3ncn4c(SCC(=O)NCc5ccco5)nnc4c23)C1` (stereo not drawn), the “hERG current change (%, negative = inhibition) at 10uM” value came out at 3.8%.
As for `Cc1c(C(=O)NC2CCCc3ccccc32)oc2ccc(S(=O)(=O)N3CCOCC3)cc12` (stereo not drawn), the figure is -2.45%; as for `CN1CC(=O)Nc2ccc(F)cc2C1=O`, 13.3%.
For the molecule `C#CCN[C@H](C)Cc1ccccc1.Cl`, the “hERG current change (%, negative = inhibition) at 10uM” value was 1.08%.
In the case of `COCCn1c(-c2ccccc2)nc(=S)c2c1CC(C)(C)OC2`, the “hERG current change (%, negative = inhibition) at 10uM” value is -11.5%.
As for `OCCNc1nc(Nc2ccccc2O)nc(N2CCCC2)n1`, the “hERG current change (%, negative = inhibition) at 10uM” value is listed as -20.7%.
On to `Clc1ccc(OCc2noc(-c3ccsc3)n2)c(Cl)c1`, for which the “hERG current change (%, negative = inhibition) at 10uM” value is 12.9%.
`N#CC1=C(SCC(=O)Nc2ccccc2)NC(=O)CC1c1ccc(O)cc1` (stereo not drawn): the “hERG current change (%, negative = inhibition) at 10uM” value was 0.978%.
For `COCc1cc(C)[nH]c(=O)c1C#N`, the “hERG current change (%, negative = inhibition) at 10uM” value is 15.2%.
In the case of `Cn1c(=O)c2c(ncn2CC(=O)Nc2ccccc2N2CCOCC2)n(C)c1=O`, the “hERG current change (%, negative = inhibition) at 10uM” value is -3.4%.
Take `O=C(COC(=O)c1ccc[nH]c1=O)NCCCc1ccccc1`: the “hERG current change (%, negative = inhibition) at 10uM” value stood at 17.5%.
On to `CC1CCCCC1NC(=O)COC(=O)c1ccc(N(C)C)cc1` (stereo not drawn), for which the “hERG current change (%, negative = inhibition) at 10uM” value stood at 5.75%.
With `COc1ccc(C2=NNC(c3cc(Cl)cc4c3OCOC4)C2)c(O)c1` (stereo not drawn), the “hERG current change (%, negative = inhibition) at 10uM” value is recorded as 7.19%.
For the molecule `Cc1cc(NC(=O)CCC(=O)N(CC(=O)NC2CCCC2)Cc2ccco2)no1`, the “hERG current change (%, negative = inhibition) at 10uM” value is listed as -0.447%.
In the case of `CCCc1ccc(OCC(O)CN2CCN(c3ccccn3)CC2)cc1.Cl` (stereo not drawn), the “hERG current change (%, negative = inhibition) at 10uM” value was -63.6%.
The value for `CC(=O)c1ccc(-c2nc3ccccc3n2C)o1` was 12.7%.
As for `COc1ccc(NC(=O)CSc2nnc(COc3ccccc3)n2Cc2ccco2)cc1OC`, the figure is -32.4%.
With `COc1cc(NC(=O)c2cc(-c3cccs3)on2)cc(OC)c1OC`, the “hERG current change (%, negative = inhibition) at 10uM” value was -49.6%.
As for `COc1ccc(CCNC(=O)CSCc2ccc([N+](=O)[O-])cc2)cc1OC`, the figure is -37.5%.
Turning to `Brc1ccccc1OCCCN1CCOCC1`, the “hERG current change (%, negative = inhibition) at 10uM” value turned out to be 10.8%.
Turning to `O=[N+]([O-])c1cc(C(F)(F)F)cc([N+](=O)[O-])c1Sc1n[nH]c(C(F)(F)F)n1`, the “hERG current change (%, negative = inhibition) at 10uM” value amounted to 8.69%.
The value for `CC(=O)c1c(C)n(CCc2ccc(Cl)cc2)c2ccc(O)cc12` was 20.8%.
For the molecule `O=C(COC(=O)C1COc2ccccc2O1)Nc1ccc(Cl)cc1` (stereo not drawn), the “hERG current change (%, negative = inhibition) at 10uM” value worked out at 6.38%.
Take `Cc1ccc(-n2nc3c(=O)n(C(C)C(=O)NCCc4cccs4)nc(C)c3c2C)cc1` (stereo not drawn): the “hERG current change (%, negative = inhibition) at 10uM” value is -37.8%.
On to `O=C(Nc1nccs1)c1ccc([N+](=O)[O-])cc1`, for which the “hERG current change (%, negative = inhibition) at 10uM” value is recorded as -1.65%.
Consider `CCCCC(=O)Nc1ccc(C(=O)NN2C(=O)c3ccccc3C2=O)cc1`, for which the “hERG current change (%, negative = inhibition) at 10uM” value is recorded as -2.92%.
As for `COc1ccc(N2CCN(C(=O)CCCNC(=O)Cn3cnc4sc(C)c(C)c4c3=O)CC2)cc1`, the figure is -3.24%; as for `CC(=O)Nc1ccc(NS(=O)(=O)c2ccc(C)cc2)cc1[N+](=O)[O-]`, 19%; as for `O=C(CNS(=O)(=O)c1cccc(Br)c1)NCC1CCCCC1`, -1.42%.
On to `CCCC(=O)N1CCN(c2nnc(-c3ccc(C)cc3)c3ccccc23)CC1`, for which the “hERG current change (%, negative = inhibition) at 10uM” value is recorded as -81.1%.
Turning to `COc1ccc([C@@H]2[C@@H]3C(=O)N(C(C)(C)C)C(=O)[C@@H]3[C@]3(C)C(=O)N(c4cccc(Br)c4)C(=O)N23)cc1`, the “hERG current change (%, negative = inhibition) at 10uM” value is -0.523%.
Regarding `CCN(CC)c1nc(OCCNC(=O)Nc2ccccc2)nc(N(CC)CC)n1`, the “hERG current change (%, negative = inhibition) at 10uM” value is 1.53%.
Take `COc1ccc(NS(=O)(=O)c2cccs2)cc1S(=O)(=O)N1CCCCC1`: the “hERG current change (%, negative = inhibition) at 10uM” value is reported as -8.42%.
As for `CCCCN(C(=O)C(CCSC)N1C(=O)c2ccccc2C1=O)c1c(N)n(CCC)c(=O)[nH]c1=O` (stereo not drawn), the “hERG current change (%, negative = inhibition) at 10uM” value came out at 8.96%.
For the molecule `O=S(=O)(NC1CC2CCC1C2)c1ccc(Br)s1` (stereo not drawn), the “hERG current change (%, negative = inhibition) at 10uM” value is listed as -26.1%.
`CCN(CC)CCn1c2ccccc2c2nc3ccc([N+](=O)[O-])cc3cc21`: the “hERG current change (%, negative = inhibition) at 10uM” value was found to be 8.26%.
Regarding `CC[C@@H](C)[C@H](NC(=O)OCc1ccccc1)c1nnc([C@@H](NC(=O)OCc2ccccc2)[C@@H](C)CC)o1`, the “hERG current change (%, negative = inhibition) at 10uM” value is reported as -3.65%.
As for `CCCC(=O)Nc1cc(C)c(NC(=O)C23CC4CC(CC(C4)C2)C3)cn1`, the figure is -10%.
